# Data reported in the supplement of paper PMC3334620.
# The full ranking holds about 33,000 sequences; the median of “E-score (-0.5 to 0.5)” is about -0.017, and the highest 2% start at about 0.3. The list shows a part of the results.
# Biological target: T1, Sut1 (UniProt P53032)
# T1 sequence: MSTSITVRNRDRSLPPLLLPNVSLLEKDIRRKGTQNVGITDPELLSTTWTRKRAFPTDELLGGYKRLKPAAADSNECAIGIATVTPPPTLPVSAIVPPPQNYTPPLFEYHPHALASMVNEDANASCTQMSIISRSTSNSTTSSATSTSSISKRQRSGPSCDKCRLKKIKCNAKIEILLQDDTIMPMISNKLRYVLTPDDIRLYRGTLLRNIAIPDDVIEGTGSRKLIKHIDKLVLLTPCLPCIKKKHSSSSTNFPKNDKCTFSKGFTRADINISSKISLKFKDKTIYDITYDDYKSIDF
# Assay: PBM E-score (8-mer binding enrichment) (E-score (-0.5 to 0.5)); higher = stronger / more preferred TF binding; most listed sequences are background and not binding sites
# Details: protein concentration: 200 nM; construct: GST-full length
# Procedure, shortened: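 For each ungapped eight-base word taken together with its reverse complement, the Universal PBM Analysis Suite assigned an E-score. Binding data came from GST-tagged yeast transcription factors, applied at about 100-200 nM, on universal all-10-mer Agilent arrays made double-stranded by primer extension. Fluorescent anti-GST marked bound protein, and scans were normalised with masliner.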
row,Sequence,PBM E-score
1,AGAGTAAT,0.228
2,GAACTCGC,-0.0582
3,TCTCAACA,0.15
4,AGGGACAG,-0.31
5,CAATGCGA,-0.0216
6,CGCCCAAC,-0.142
7,ACCGCTGG,-0.219
8,CCAATGCG,-0.0279
9,CTGCGGTA,-0.18
10,ACCATTTA,0.0448
11,GTTGAAGA,0.161
12,TTACCTAA,0.152
13,GGGCGTAC,-0.143
14,GAATATTA,0.255
15,AAACCGCC,-0.105
16,CCCAGCTA,-0.25
17,GCTCATCC,-0.181
18,ACGCCCCC,-0.199
19,CGCACGTA,-0.173
20,CAGGGATA,-0.208
21,TTCACAAA,0.156
22,GACCAAGA,0.0293
23,CAGACGTA,-0.161
24,GAGATTGA,0.202
25,ACCTGGAA,0.109

row,Sequence,PBM E-score
1,ATGCCGCA,-0.0794
2,CATTCCCA,-0.115
3,AGACGACA,0.0613
4,ATATCTGA,0.0283
5,ACCATAAG,-0.0746
6,ACAATTAA,0.255
7,CACCAACC,0.0104
8,ACAGTCAG,-0.0556
9,CAATCAGA,-0.145
10,AGAAGCGA,-0.0194
11,CACACTGG,-0.177
12,CGTGTCGC,-0.0154
13,AAACCATA,0.155
14,GAGCCATA,-0.0499
15,CCACGCGA,-0.213
16,AAGAGCAC,0.02
17,GAGCTAGC,0.00809
18,AAGATGAG,-0.183
19,GATAGTGA,0.156
20,CCAAGGGG,-0.143
21,CTCGCTAC,-0.0503
22,ATAACAGG,-0.129
23,CGTTAACA,-0.0173
24,CGGGAGTC,-0.11
25,AATAACGT,0.14

row,Sequence,PBM E-score
1,AACACTTA,0.0751
2,GCGAAAAC,0.00125
3,CATGGATA,-0.198
4,AAGGCGAT,-0.0862
5,CTGGGCGA,-0.296
6,ATCGCGAA,0.00184
7,GCCTCACA,0.0414
8,CGAGTTGC,-0.0494
9,ATCGACCG,-0.205
10,CGAGAAGA,0.0504
11,CGAAATCA,0.213
12,AAGTAACT,0.156
13,ACTGTTAT,0.217
14,ATCTGCAT,-0.0643
15,ACAAACGA,0.232
16,CCAGCCGG,0.0891
17,TCAGTGGA,-0.0596
18,TCAAAAAA,0.224
19,TGCACGAA,0.18
20,AGTGATAG,0.122
21,ATGAGTGA,0.0605
22,AGGTAAGC,-0.0241
23,TCAACCCA,-0.063
24,CTCGGCTC,-0.0596
25,CAGAAGTA,0.0312

row,Sequence,PBM E-score
1,GCAGCCAA,-0.0277
2,CATGGGGC,-0.312
3,CACTGAGG,-0.0713
4,ATTCTGAC,-0.0784
5,GCTCTAAC,-0.118
6,CCAGAATC,-0.0221
7,CATCATTC,0.0139
8,TGTAGTAA,0.222
9,AATTGAAA,0.125
10,ATGTGAAG,0.0256
11,GATAATCA,0.107
12,GTTAGACA,0.193
13,GTCGAGTA,-0.0477
14,AACGCGAA,0.0627
15,AGTGAGTA,0.26
16,ACGCCGCC,-0.084
17,CGCCTCAA,-0.0984
18,AATGCGTG,-0.151
19,AATCCGGA,0.368
20,CACTTTTA,0.225
21,CGTGTGTA,0.0883
22,ATAACTAT,0.253
23,TACTAATA,0.181
24,GGCATGAC,-0.381
25,CGGTGACG,0.00302

row,Sequence,PBM E-score
1,GCGCGCAC,-0.101
2,CTCATCTC,0.109
3,CCAGCGGC,-0.131
4,CTAGTAGC,0.0397
5,GCCCAGAA,-0.0411
6,CCTTAGCG,-0.112
7,ATTGAAGC,0.113
8,CCAACACA,0.0923
9,TATTTGAA,0.247
10,AATCGCAT,0.0231
11,AAGGTCTA,-0.127
12,CTTAGACA,-0.276
13,ACTCATAC,0.0873
14,ACTACGAG,-0.113
15,CCTGCTCA,-0.19
16,CCGCTGAA,0.0915
17,GCCTTGAC,-0.0825
18,AAGTAACA,0.0286
19,AAAAAGGT,0.0915
20,GGGGTACC,-0.172
21,CTGGGGAC,-0.282
22,ACTTGGTA,0.0271
23,ATACAGTG,0.0667
24,AGTTATTC,0.201
25,GTCGTGCA,-0.256

row,Sequence,PBM E-score
1,AAAGACTG,-0.0899
2,AAGCCTTA,-0.0538
3,CCATACGC,-0.0864
4,AGTGGTTA,0.094
5,AGGGTAGG,-0.235
6,GCGGCGAA,0.13
7,GGGCTTAA,-0.122
8,ATTGTAGA,0.167
9,TAGTAGAA,0.0513
10,CCTCCACC,-0.0218
11,CAACTGGC,-0.128
12,ACGATCAA,0.0406
13,GCTGACCC,-0.116
14,GAGATCGA,0.00199
15,ACGGAGCA,0.207
16,ACTTTACT,0.128
17,AAATCGCG,0.0769
18,GGTAGAGA,-0.113
19,TCTACTAA,0.159
20,CAATACCA,0.116
21,TGCGCGAA,0.168
22,TCCATCGA,-0.0147
23,TCGGAAGA,0.142
24,ATGGGGTA,-0.0156
25,GATTCGAC,-0.0375

row,Sequence,PBM E-score
1,ATGGATCC,0.0993
2,CGAGGACG,-0.0674
3,GGGTTGTA,-0.0207
4,GTACCAAA,0.0249
5,GGCTCTTA,-0.0869
6,AACCTCAA,-0.00124
7,CATATGCG,-0.0808
8,CGTATTTC,0.232
9,GTCCGGTA,0.373
10,ATTTACCG,0.227
11,CTTAGGCA,-0.18
12,ACCGTCAC,-0.294
13,GACATCTC,0.0546
14,AAGAGGTA,0.124
15,TATGCGAA,0.131
16,AACGCTTA,-0.00017
17,CGTTGTAG,0.165
18,AGGTATCG,0.0564
19,CGCTATTA,0.175
20,CTGGGGTC,-0.224
21,CATTTGGG,-0.144
22,AAGTCTAT,-0.0126
